The other results are listed elsewhere or left out.

This assay has as its target T1, MBP-FoxP1dN (Mus musculus, UniProt P58462 326-579).
T1 sequence: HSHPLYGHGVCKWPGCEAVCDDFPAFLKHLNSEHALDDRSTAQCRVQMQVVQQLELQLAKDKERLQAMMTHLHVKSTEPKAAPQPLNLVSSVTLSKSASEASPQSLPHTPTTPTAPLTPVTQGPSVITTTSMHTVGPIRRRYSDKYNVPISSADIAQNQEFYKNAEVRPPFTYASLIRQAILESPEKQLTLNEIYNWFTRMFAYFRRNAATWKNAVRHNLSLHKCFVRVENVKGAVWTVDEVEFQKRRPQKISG
In words: PD-seq (MBP pull-down with sequencing); 20 mM Tris-HCl pH 7.5, 100 mM NaCl, 1.5 mM MgCl2, 0.4 uM protein, 0.1 uM dsDNA library, 30 min, room temperature, amylose pull-down; high values mean tight binding. The conditions noted are these: protein: recombinant; tags: His6-MBP; chain copies: 2; dsDNA, one strand shown. The method, boiled down: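 Protein and DNA were mixed at 0.4 µM and 0.1 µM and held for 30 min at room temperature in Tris pH 7.5 buffer with NaCl and MgCl2; the protein was a His6-MBP-tagged, N-terminally truncated mouse FoxP3 or FoxP1 fragment from E. coli, and the DNA a Klenow-filled double-stranded degenerate library. Amylose resin captured the complexes, which were washed three times. Binding is read as reads-per-million enrichment of pull-down versus input after Illumina sequencing, with replicates pooled.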
In the case of “GATGATTGTTCTCCCAGCTGATGAATTAAGTCAATCGAGTAAACAAATTTTCCTAATCTTTCTGTTCAAGCGCCATCTAC”, the binding signal is 1.15 RPM ratio (pull-down/input). For “GATGATTGTTCTCCCAGCTGATGAATTATTATTTTCGAGTAAACAAATTTTCCTAATCTTTCTGTTCAAGCGCCATCTAC” the value was 3.1 RPM ratio (pull-down/input); for “GATGATTGTTCTCCCAGCTGATGAATTTCCCAACTCGAGTAAACAAATTTTCCTAATCTTTCTGTTCAAGCGCCATCTAC”, 0.84 RPM ratio (pull-down/input); for “GATGATTGTTCTCCCAGCTGATGAATTTATGACTTCGAGTAAACAAATTTTCCTAATCTTTCTGTTCAAGCGCCATCTAC”, 1.13 RPM ratio (pull-down/input). Consider “GATGATTGTTCTCCCAGCTGATGAATTTACCAGTTCGAGTAAACAAATTTTCCTAATCTTTCTGTTCAAGCGCCATCTAC”, for which the binding signal is 1.22 RPM ratio (pull-down/input). Turning to “GATGATTGTTCTCCCAGCTGATGAATTTCAGTCGTCGAGTAAACAAATTTTCCTAATCTTTCTGTTCAAGCGCCATCTAC”, the binding signal is 0.767 RPM ratio (pull-down/input).

Take “GATGATTGTTCTCCCAGCTGATGAATTTCTAGTATCGAGTAAACAAATTTTCCTAATCTTTCTGTTCAAGCGCCATCTAC”: the binding signal was 0.933 RPM ratio (pull-down/input). Consider “GATGATTGTTCTCCCAGCTGATGAATTCACGCCATCGAGTAAACAAATTTTCCTAATCTTTCTGTTCAAGCGCCATCTAC”, for which the binding signal is 1.01 RPM ratio (pull-down/input). As for “GATGATTGTTCTCCCAGCTGATGAATTTGTTTAGTCGAGTAAACAAATTTTCCTAATCTTTCTGTTCAAGCGCCATCTAC”, the binding signal is 2.24 RPM ratio (pull-down/input). “GATGATTGTTCTCCCAGCTGATGAATTAGAGCGTTCGAGTAAACAAATTTTCCTAATCTTTCTGTTCAAGCGCCATCTAC”: the binding signal was 0.924 RPM ratio (pull-down/input). In the case of “GATGATTGTTCTCCCAGCTGATGAATTAGCCCTTTCGAGTAAACAAATTTTCCTAATCTTTCTGTTCAAGCGCCATCTAC”, the binding signal was 0.827 RPM ratio (pull-down/input). With “GATGATTGTTCTCCCAGCTGATGAATTACCGAAGTCGAGTAAACAAATTTTCCTAATCTTTCTGTTCAAGCGCCATCTAC”, the binding signal was 0.924 RPM ratio (pull-down/input). For “GATGATTGTTCTCCCAGCTGATGAATTTATAAGATCGAGTAAACAAATTTTCCTAATCTTTCTGTTCAAGCGCCATCTAC”, the binding signal is 1.13 RPM ratio (pull-down/input). For the sequence “GATGATTGTTCTCCCAGCTGATGAATTAATCTATTCGAGTAAACAAATTTTCCTAATCTTTCTGTTCAAGCGCCATCTAC”, the binding signal is 0.999 RPM ratio (pull-down/input). For the sequence “GATGATTGTTCTCCCAGCTGATGAATTAGACCTGTCGAGTAAACAAATTTTCCTAATCTTTCTGTTCAAGCGCCATCTAC”, the binding signal is 0.889 RPM ratio (pull-down/input). Regarding “GATGATTGTTCTCCCAGCTGATGAATTGCCTGATTCGAGTAAACAAATTTTCCTAATCTTTCTGTTCAAGCGCCATCTAC”, the binding signal is 0.995 RPM ratio (pull-down/input). Regarding “GATGATTGTTCTCCCAGCTGATGAATTTCTGGTCTCGAGTAAACAAATTTTCCTAATCTTTCTGTTCAAGCGCCATCTAC”, the binding signal was 0.782 RPM ratio (pull-down/input). Regarding “GATGATTGTTCTCCCAGCTGATGAATTATATACATCGAGTAAACAAATTTTCCTAATCTTTCTGTTCAAGCGCCATCTAC”, the binding signal was 1.43 RPM ratio (pull-down/input).

In the case of “GATGATTGTTCTCCCAGCTGATGAATTATCATGCTCGAGTAAACAAATTTTCCTAATCTTTCTGTTCAAGCGCCATCTAC”, the binding signal is 0.994 RPM ratio (pull-down/input).

For “GATGATTGTTCTCCCAGCTGATGAATTTAGGGCTTCGAGTAAACAAATTTTCCTAATCTTTCTGTTCAAGCGCCATCTAC”, the binding signal was 0.889 RPM ratio (pull-down/input). As to “GATGATTGTTCTCCCAGCTGATGAATTTTCTCCGTCGAGTAAACAAATTTTCCTAATCTTTCTGTTCAAGCGCCATCTAC”, the binding signal is 0.914 RPM ratio (pull-down/input). On to “GATGATTGTTCTCCCAGCTGATGAATTCGAGTAATCGAGTAAACAAATTTTCCTAATCTTTCTGTTCAAGCGCCATCTAC”, for which the binding signal is 1.4 RPM ratio (pull-down/input). Consider “GATGATTGTTCTCCCAGCTGATGAATTGGCCGCGTCGAGTAAACAAATTTTCCTAATCTTTCTGTTCAAGCGCCATCTAC”, for which the binding signal is 0.925 RPM ratio (pull-down/input). Turning to “GATGATTGTTCTCCCAGCTGATGAATTCGTTTGATCGAGTAAACAAATTTTCCTAATCTTTCTGTTCAAGCGCCATCTAC”, the binding signal was 0.923 RPM ratio (pull-down/input).

Take “GATGATTGTTCTCCCAGCTGATGAATTACTGGCCTCGAGTAAACAAATTTTCCTAATCTTTCTGTTCAAGCGCCATCTAC”: the binding signal was 0.886 RPM ratio (pull-down/input). “GATGATTGTTCTCCCAGCTGATGAATTGCCTCGATCGAGTAAACAAATTTTCCTAATCTTTCTGTTCAAGCGCCATCTAC”: the binding signal was 0.939 RPM ratio (pull-down/input). As for “GATGATTGTTCTCCCAGCTGATGAATTGGTTATCTCGAGTAAACAAATTTTCCTAATCTTTCTGTTCAAGCGCCATCTAC”, the binding signal is 1 RPM ratio (pull-down/input).

As to “GATGATTGTTCTCCCAGCTGATGAATTGATGATTTCGAGTAAACAAATTTTCCTAATCTTTCTGTTCAAGCGCCATCTAC”, the binding signal is 1.34 RPM ratio (pull-down/input). Regarding “GATGATTGTTCTCCCAGCTGATGAATTATGGTGCTCGAGTAAACAAATTTTCCTAATCTTTCTGTTCAAGCGCCATCTAC”, the binding signal is 0.966 RPM ratio (pull-down/input).

In the case of “GATGATTGTTCTCCCAGCTGATGAATTGGAACTTTCGAGTAAACAAATTTTCCTAATCTTTCTGTTCAAGCGCCATCTAC”, the binding signal was 0.834 RPM ratio (pull-down/input). Turning to “GATGATTGTTCTCCCAGCTGATGAATTGGCACTTTCGAGTAAACAAATTTTCCTAATCTTTCTGTTCAAGCGCCATCTAC”, the binding signal was 0.943 RPM ratio (pull-down/input).

(Values after publication PMC12820563, “FoxP3 forms a head-to-head dimer in vivo and stabilizes its multimerization on adjacent microsatellites”.)
